Results taken from publication PMC11414077, “Novel thiazole-based cyanoacrylamide derivatives: DNA cleavage, DNA/BSA binding properties and their anticancer behaviour against colon and breast cancer cells” (BMC Chemistry, 2024).

What was measured:
pBR322 plasmid DNA [1] = conditions: 200 μM, 30 min at 37°C followed by irradiation at 365 nm for 60 min
pBR322 plasmid DNA [2] = assay: Mechanistic pBR322 DNA photo-cleavage with radical scavengers; assay type: biochemical; conditions: 200 μM compound, irradiation at 365 nm; for photocleavage activity in the presence of DMSO (hydroxyl radical scavenger): DMSO 200 mM; for photocleavage activity in the presence of KI (superoxide radical scavenger): KI 200 mM; for photocleavage activity in the presence of NaN3 (singlet oxygen scavenger): NaN3 200 mM
HCT116 cells = assay: MTT cell viability assay, HCT116; assay type: cell-based; conditions: Homo sapiens, HCT-116, 20 min; HCT116, illumination at 365 nm for 20 min
Protocol: (§1) The cytotoxicity of 3b and 3c against MDA-MB-231 and HCT116 cell lines, with and without illumination, was assessed using the MTT test. Two human cancer cell lines, including MDA-MB-231 and HCT116 cell lines, were purchased from the National Research Centre, Dokki, Cairo, Egypt. Briefly, 96-well plates were seeded with cells (5 × 10^3 cells/well) and left overnight. The compounds dissolved in DMSO were then applied to the cells following the serial dilution procedure in the range of 0–100 µM. The cells were then incubated for an additional 20 h. Subsequently, the cells were exposed to UV light for 20 min at a distance of 10 cm. To study the effects of the illumination, a control plate was created under the same circumstances but without illumination. The two plates were incubated for a further 20 h. After that, PBS was used to wash the cells and MTT solution (0.5 mg/ml) was added. To dissolve the generated formazan crystals, the solution was replaced with 100 µl of DMSO per well after 4 h of incubation. An ELISA reader operating at 492 nm was used to measure the absorbance after 15 min of plate shaking. By relating the absorbance of treated and negative control cells, the relative cell viability was calculated. GraphPad Prism software was used to calculate the half inhibitory concentration (IC50). […]

MDA-MB-231 cells = assay: MTT cell viability assay, MDA-MB-231; assay type: cell-based; conditions: Homo sapiens, 20 min; MDA-MB-231, illumination at 365 nm for 20 min
Protocol: as §1

Compound	DNA photocleavage activity (pBR322 plasmid DNA [1])	photocleavage activity in the presence of DMSO (hydroxyl radical scavenger) (pBR322 plasmid DNA [2])	photocleavage activity in the presence of KI (superoxide radical scavenger) (pBR322 plasmid DNA [2])	photocleavage activity in the presence of NaN3 (singlet oxygen scavenger) (pBR322 plasmid DNA [2])	IC50 (HCT116 cells)	IC50 (MDA-MB-231 cells)
2-Cyano-3-(1,3-diphenyl-1H-pyrazol-5-yl)-N-(thiazol-2-yl)acrylamide [Compound 3a]	non-detectable DNA cleavage					
N#CC(=Cc1cn(-c2ccccc2)nc1-c1cccs1)C(=O)Nc1nccs1 [Compound 3b, 2-Cyano-3-(1-phenyl-3-(thiophen-2-yl)-1H-pyrazol-4-yl)-N-(thiazol-2-yl)acrylamide]	remarkable photocleavage activity	did not influence	total hindrance	total hindrance	23 µM	30 µM
N#CC(=Cc1cn(-c2ccccc2)nc1-c1cccnc1)C(=O)Nc1nccs1 [Compound 3c, 2-Cyano-3-(1-phenyl-3-(pyridin-3-yl)-1H-pyrazol-4-yl)-N-(thiazol-2-yl)acrylamide]	remarkable photocleavage activity	did not influence	total hindrance	total hindrance	25 µM	9 µM
Cc1ccc(-c2nn(-c3ccccc3)cc2C=C(C#N)C(=O)Nc2nccs2)cc1 [Compound 3d, 2-Cyano-3-(1-phenyl-3-(p-tolyl)-1H-pyrazol-4-yl)-N-(thiazol-2-yl)acrylamide]	non-detectable DNA cleavage					
